The whole screen tested about 310,000 compounds, of which about 2,200 (0.71%) showed an effect of 50% or more. Effects have a minus sign here. Some of the results follow.

Chain of human ether-à-go-go-related gene (hERG) potassium channel (Q12809 whole entry, looked up): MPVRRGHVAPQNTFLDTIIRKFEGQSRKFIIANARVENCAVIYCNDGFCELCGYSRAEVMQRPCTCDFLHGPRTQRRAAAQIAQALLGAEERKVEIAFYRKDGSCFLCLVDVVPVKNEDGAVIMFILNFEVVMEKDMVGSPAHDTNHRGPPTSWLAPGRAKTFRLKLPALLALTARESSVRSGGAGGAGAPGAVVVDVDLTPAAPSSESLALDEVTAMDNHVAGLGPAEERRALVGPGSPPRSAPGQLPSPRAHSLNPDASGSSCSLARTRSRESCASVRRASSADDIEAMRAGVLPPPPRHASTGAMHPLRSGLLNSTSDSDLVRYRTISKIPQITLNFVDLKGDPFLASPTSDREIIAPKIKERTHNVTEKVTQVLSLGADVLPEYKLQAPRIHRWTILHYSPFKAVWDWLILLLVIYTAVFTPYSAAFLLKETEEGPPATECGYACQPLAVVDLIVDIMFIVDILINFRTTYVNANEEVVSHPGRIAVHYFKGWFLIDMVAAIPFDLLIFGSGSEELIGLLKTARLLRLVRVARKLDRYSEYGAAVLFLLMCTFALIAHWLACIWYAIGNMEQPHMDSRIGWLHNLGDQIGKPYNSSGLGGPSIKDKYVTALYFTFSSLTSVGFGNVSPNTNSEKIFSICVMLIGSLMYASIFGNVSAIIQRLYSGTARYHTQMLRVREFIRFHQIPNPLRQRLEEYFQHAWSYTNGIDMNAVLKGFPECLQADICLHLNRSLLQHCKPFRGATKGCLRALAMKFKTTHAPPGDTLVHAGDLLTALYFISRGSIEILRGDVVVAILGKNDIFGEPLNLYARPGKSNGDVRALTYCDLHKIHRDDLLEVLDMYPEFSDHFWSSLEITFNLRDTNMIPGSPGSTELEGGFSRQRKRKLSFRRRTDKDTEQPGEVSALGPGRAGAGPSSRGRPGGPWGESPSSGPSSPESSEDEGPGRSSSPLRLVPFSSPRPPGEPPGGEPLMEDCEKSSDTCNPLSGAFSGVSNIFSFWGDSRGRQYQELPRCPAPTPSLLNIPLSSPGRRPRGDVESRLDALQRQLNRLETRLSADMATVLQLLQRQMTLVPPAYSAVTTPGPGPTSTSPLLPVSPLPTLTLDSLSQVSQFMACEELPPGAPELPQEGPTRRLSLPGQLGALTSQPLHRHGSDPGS

This assay has as its target human ether-à-go-go-related gene (hERG) potassium channel (human, UniProt Q12809). Kind of assay: primary screen, population patch clamp on CHO cells stably expressing hERG.
In the case of `CCCCOc1ccccc1C(=O)NCCCC(=O)O`, the “hERG current change (%, negative = inhibition) at 1uM” value is recorded as 11.2%.
Under `CCc1ccc(N(CC(=O)NCc2ccc3c(c2)OCO3)C(=O)c2csnn2)cc1` stands 8.92%; under `COc1ccc(C(=O)OCC(=O)c2ccc(CNC(C)=O)s2)cc1`, -5.56%; under `O=C(Nc1ccc(F)cc1)c1nc2c(nnn2Cc2cccc3ccccc23)c(=O)[nH]1`, 20.4%.
Under `CSc1cccc(-n2c(C)cc(C(N)=O)c2C)c1` stands 14.2%.
Under `Cc1cc(C)nc(SCc2nnc(SCC(=O)N3CCCc4ccccc43)n2C)n1` stands 3.32%; under `CCOc1cc(C2C3=C(CCCC3=O)NC3=C2C(=O)CCC3)ccc1OCCO`, 9.61%.
Regarding `COc1ccc(-n2ncc3c(NCc4ccccn4)ncnc32)cc1`, the “hERG current change (%, negative = inhibition) at 1uM” value is recorded as -3.69%.
In the case of `CCN(CC)CCCNC(=O)/C(=C\c1cccn1C)NC(=O)c1cccs1` it was 12.8%; in that of `Cc1ccccc1NC(=S)Nc1ccccn1`, 14.9%.
Under `FC(F)(F)COc1ccc(-c2nnc(SCc3ccccc3)o2)cn1` stands 6.62%.
In the case of `Cc1cc(-c2nnc(SCC(=O)Nc3c(C)cccc3C)n2N)n[nH]1` it was 9.64%; in that of `Oc1c(Br)cc(Br)cc1/C=N/N1CCN(Cc2ccccc2)CC1`, 16.3%; in that of `Cc1ccc(NC(=O)Cc2ccc(-c3ccccc3)cc2)nc1`, 11.3%.
Regarding `COC(=O)[C@H](Cc1ccccc1)NC(=O)Nc1ccc(OC)cc1`, the “hERG current change (%, negative = inhibition) at 1uM” value is recorded as 8.42%.
Under `Cc1nc(N)[nH]c(=O)c1CCC(=O)OCC(C)C` stands 16.7%; under `COCCCN1C(=O)c2[nH]nc(-c3ccccc3O)c2C1c1cccc(Cl)c1` (stereo not drawn), 16.8%; under `CC12CN3CC(C)(CN(C1)C3c1ccc(F)cc1)C2` (stereo not drawn), -17.9%.
In the case of `O=c1c2c(-c3ccccc3)csc2ncn1/N=C/c1ccc(O)c([N+](=O)[O-])c1` it was 8.46%; in that of `CCOC(=O)c1c(NC(=O)Cc2cccs2)sc(C(=O)NC2CCCC2)c1C`, 0.408%; in that of `COC(=O)Nc1ccc(S(=O)(=O)N(CCO)CCO)cc1`, -4.28%.
With `CCOc1nc(-c2ccccc2)c2cc(Br)ccc2n1`, the “hERG current change (%, negative = inhibition) at 1uM” value came to 16.7%.
In the case of `COc1ccc(/C=N\NC(=O)c2cc(OCC(F)(F)F)ccc2OCC(F)(F)F)cc1` it was 8.56%; in that of `CC(Sc1nnc(Cc2ccc3c(c2)OCO3)o1)C(N)=O` (stereo not drawn), -5.91%.
In the case of `Cc1ccc(C(=O)CSc2nc3cccnc3n2C)cc1` it was 10.9%.
Under `C/C(=N\NC(N)=S)c1ccc(Cl)s1` stands 13.5%; under `C[C@@H]1CCC[C@@]2(O[C@H](CCO)C[C@H](O)[C@H]2O)O1`, 2.55%.
Consider `C/C(N)=C(/C#N)C(=O)CN1CCCCC1`, for which the “hERG current change (%, negative = inhibition) at 1uM” value is 5.74%.
For the compound `COc1cccc(/C=C/C(=O)NCc2ccc3c(c2)OCO3)c1`, the “hERG current change (%, negative = inhibition) at 1uM” value was 6.97%.
In the case of `NC(=O)CN1C(=O)NC2(CCOc3ccccc32)C1=O` (stereo not drawn) it was 14.3%; in that of `COc1cccc(-c2nc(CS(=O)(=O)CC(=O)Nc3ccc(C(C)=O)cc3)c(C)o2)c1`, 17.3%; in that of `CC(NC(=O)c1sc2cc([N+](=O)[O-])ccc2c1Cl)C(C)(C)C` (stereo not drawn), 2.53%.
In the case of `Cc1ccc2oc(=O)n(CC(=O)OC(C)C)c2c1` it was 3.72%; in that of `CC(C)(C)N=C1NN=C(c2ccc(Cl)cc2)CS1`, 10.4%; in that of `CCOC(=O)N/N=C\C=C\c1ccc2c(c1)OCO2`, 5.37%.
Consider `CC1CN(CCc2ccccc2)c2nc3c(c(=O)n(CC(N)=O)c(=O)n3C)n2C1` (stereo not drawn), for which the “hERG current change (%, negative = inhibition) at 1uM” value worked out at 9.4%.
Under `OC(COCc1ccc(Cl)cc1)CN1CCN(CC(O)COCc2ccc(Cl)cc2)CC1` (stereo not drawn) stands -67.5%; under `CC(=O)N1c2ccc(S(=O)(=O)N3CCC(C(=O)NC4CCCCC4)CC3)cc2CC1C` (stereo not drawn), 14.1%.
In the case of `Cc1[nH]c(C)c(S(=O)(=O)NCCc2ccc(S(N)(=O)=O)cc2)c1C(=O)N1CCCC1` it was 12.3%; in that of `CC(=O)c1ccc(NC(=S)Nc2cccc3cnccc23)cc1`, 11.8%; in that of `COCCN(C(=O)COC(=O)C(c1ccccc1)c1ccccc1)c1c(N)n(Cc2ccccc2)c(=O)[nH]c1=O`, 10.9%.
`CCOCCn1c(=O)c2c(nc3n2CC(C)CN3Cc2ccccc2)n(C)c1=O` (stereo not drawn): the “hERG current change (%, negative = inhibition) at 1uM” value was -14.4%.
Under `O=C(Nc1ccccn1)c1ccc(Br)s1` stands 13.3%.
In the case of `Nc1nc(CSc2nc3ccccc3s2)nc(N2CCCCC2)n1` it was 13.4%; in that of `COc1cccc(NP(=O)(Oc2ccccc2)Oc2ccccc2)c1`, -0.972%.
In the case of `O=C(CC(=O)Nc1ccccc1C(F)(F)F)Nc1ccccc1C(F)(F)F` it was 13.7%; in that of `CC(=O)NCc1ccc(S(=O)(=O)N/N=C/c2ccc(Br)cc2)cc1`, 12.2%; in that of `CCN(CC(=O)Nc1c(F)cccc1F)C(=O)CSCc1c(C)noc1C`, 11.5%.
With `CC(C)(C)C(=O)/C(C#N)=C/c1cccs1`, the “hERG current change (%, negative = inhibition) at 1uM” value is listed as 10.2%.
In the case of `Cc1ccccc1-c1nc(CS(=O)(=O)CC(=O)N2CCc3ccccc3C2)c(C)o1` it was -3.9%; in that of `CC(/C=C/c1ccc(N(C)C)cc1)=N\N=C(/N)SC1CC(=O)N(c2ccc(C(=O)O)cc2)C1=O` (stereo not drawn), 3.7%.
In the case of `NC(=O)c1cc(N)ccc1N1CCCC1` it was 6.77%; in that of `Cc1csc(NC(=O)CSc2nc3[nH]ncc3c(=O)[nH]2)n1`, 19.9%; in that of `CS(=O)(=O)N(CC(=O)N1CCCC1)c1cccc(Cl)c1`, 8.28%.
In the case of `CC(C)CC[n+]1ccccc1/C=C/c1ccc(N(C)C)cc1.[I-]` it was -26.2%; in that of `C#CCOCCOCCOCCNc1nc(N2CCN(C(=O)[C@H](CCCC[NH3+])n3cc(CCCC)nn3)CC2)nc(N2CCN(C(=O)[C@H](CCCC[NH3+])n3cc(CCC(=O)O)nn3)CC2)n1.[Cl-]`, 10.5%.
On to `Cc1ccc(S(=O)(=O)N2CCCCC2)cc1C(=O)NC1CC(C)(C)NC(C)(C)C1`, for which the “hERG current change (%, negative = inhibition) at 1uM” value worked out at 12.6%.
In the case of `CC(=O)O.Cc1ccc2nc(N3C(=O)C(O)=C(C(=O)c4cc5ccccc5o4)C3c3cccs3)sc2c1` (stereo not drawn) it was 11.2%; in that of `Cc1ccc(NS(=O)(=O)c2ccc3[nH]c(=O)c(=O)[nH]c3c2)cc1Cl`, 9.72%; in that of `CNCc1c(C)nn(-c2ccccc2)c1C`, 13.3%.
In the case of `CC(=O)N1C(=O)CC(C)N(C(C)=O)c2ccc([N+](=O)[O-])cc21` (stereo not drawn) it was 4.26%; in that of `CN(C(=O)CN1C(=O)c2ccccc2S1(=O)=O)c1ccccc1C(=O)O`, 14.4%; in that of `COc1cccc(NC(=O)Nc2cccnc2)c1`, 4.8%.
Under `COc1cccc(CNC(=O)C(=O)NCC(c2ccco2)N2CCOCC2)c1` (stereo not drawn) stands 10.9%.
In the case of `COC(=O)[C@@H]1CCCN1C(=O)CCc1nnc(CCC2CCCCC2)o1`, the “hERG current change (%, negative = inhibition) at 1uM” value was found to be 14.2%.
In the case of `N#Cc1ccc(OCC(=O)NC2=NCCS2)cc1` it was 10.5%; in that of `COCCNc1cc(C)nc2c3c(C)cc(C)nc3nn12`, 2.82%; in that of `COc1ccc2nc(N3CCCC(C(=O)NCCc4ccc(OC)c(OC)c4)C3)sc2c1` (stereo not drawn), 7.19%.
In the case of `O=C(COC(=O)c1sc2ccccc2c1Cl)NC1CCCCC1` it was 14.2%; in that of `S=C(NCCN1CCOCC1)Nc1ccc(Br)cc1`, 12.7%.
For the compound `Cc1c(Cl)cccc1Nc1nc(N)nc(CN2CCc3ccccc3C2)n1`, the “hERG current change (%, negative = inhibition) at 1uM” value amounted to 1.02%.
Regarding `O=C1C2C(C(=O)N1/N=C/c1cc(Br)cc([N+](=O)[O-])c1O)C1C=CC2C12CC2` (stereo not drawn), the “hERG current change (%, negative = inhibition) at 1uM” value was 10.3%.
In the case of `CC(C)CCOCc1nc2sc3c(c2c(=O)[nH]1)CCC(C)C3` (stereo not drawn) it was 1.63%; in that of `CCn1cnc2c1c(=O)n(CC(=O)Nc1ccc3c(c1)OC(F)(F)O3)c(=O)n2Cc1ccccc1`, -5.09%; in that of `O=C(COC(=O)Cc1ccc(Cl)cc1)Nc1ccc(OC(F)F)cc1`, 6.61%.
Under `Cc1ccccc1OCC(=O)Nc1cccc(S(=O)(=O)NC2=NCCC2)c1` stands -0.486%; under `COc1ccc(C2CCCN2C(=O)c2cccs2)cc1` (stereo not drawn), 12.4%.
For the compound `COc1ccc(OC)c(NC(=O)COC(=O)c2n[nH]c3ccccc23)c1`, the “hERG current change (%, negative = inhibition) at 1uM” value is reported as 12.6%.
Under `Cc1nn(C)cc1/C=N/NC(=O)c1ccco1` stands 7.66%.
Under `CC(/C=C/c1ccc(N(C)C)cc1)=N/N=C1/NC(=O)CC(C(=O)Nc2ccc(Cl)cc2)S1` (stereo not drawn) stands 6.42%; under `CC(=O)Oc1ccccc1N(C(C)=O)S(=O)(=O)c1ccc2ccccc2c1`, 17.1%; under `CN1CCN(C(=S)Nc2ccc([N+](=O)[O-])cc2)CC1`, 1.7%.
Regarding `Nc1nc(SCC(=O)N2CCCCCC2)[nH]c(=O)c1NC(=O)c1ccco1`, the “hERG current change (%, negative = inhibition) at 1uM” value amounted to 12.6%.
In the case of `CCOC(=O)C1CCN(/C=C2\C(=O)NC(=S)N(CC)C2=O)CC1` it was 6.14%; in that of `Cc1ccc(CNS(=O)(=O)c2c(C)[nH]c(C)c2C(=O)N2CCCCC2)o1`, 10%.
Under `O=C(Cn1c(=O)cnc2ccccc21)NNC(=O)c1ccccc1Cl` stands 13.3%; under `S=c1nc(-c2csc3c2CCCC3)[nH][nH]1`, 20.6%.
In the case of `Cc1cc(C)n(Cc2ccc(C(=O)NN)o2)n1` it was 10.4%; in that of `CCn1ccnc1CN(C)C(=O)CCc1nnc(CCC2CCCCC2)o1`, -5.97%; in that of `COC(=O)C1=C(c2cccc(OC)c2OC)C[C@@H]2CC[C@H]1N2C(=O)NC1CC1`, 15.4%.

The values above are taken from paper PMC4336329 (PLoS ONE, 2015).
